Among all 150,000 compounds or so, about 540 (0.36%) showed an effect of 50% or more. The list shows a part of the results.

The test system of this experiment is Plasmodium falciparum. Briefly: Primary screen in NF54 nanoGlo assay, in single point, at 2uM, 72h; a lower Z score goes with more inhibition. The experiment is classed as functional, Erythrocyte. As to conditions: timepoint 72 hour.
As usually defined, the % Inhibition is the change of the read-out against control, counted positive when it falls. With `C=C(C)C1OCCC1CNC(=O)N1CCC(c2c[nH]c3ccccc23)CC1` (centres undefined), the “% Inhibition” value came to 1% and the Z score is given as -0.22.

For the compound `O=C(NCC1CCN1C1CC1)NC[C@@H]1C[C@H](c2ccccc2)CO1` (some centres undefined), the “% Inhibition” value was 4% and the Z score is recorded as -0.53.

Regarding `C=CCN(Cc1nc(-c2ccccn2)no1)[C@H]1CCS(=O)(=O)C1`, the “% Inhibition” value was -2% and the Z score was 0.36.

In the case of `C[C@@H](CNC(=O)c1nn(-c2ccc(F)cc2)cc1O)Cn1ccnc1`, the “% Inhibition” value was -2% and the Z score stood at 0.21.

In the case of `COc1ccc(CCN(Cc2ccco2)C(=O)CN(C(=O)C(C)C)C(C)(C)C)cc1OC`, the “% Inhibition” value is -10% and the Z score was 0.94.

With `CCCN(C(=O)c1cccc[n+]1[O-])[C@@H](C)c1cc2ccccc2o1`, the “% Inhibition” value is listed as -6% and the Z score is listed as 0.73.

Consider `COCCNC(=O)N[C@@H](C)Cc1cc2ccccc2o1`, for which the “% Inhibition” value is -1% and the Z score is 0.21.

Turning to `COc1ccc2c(N[C@H]3CCO[C@@H]3c3ccc(=O)[nH]c3)ncnc2c1F`, the “% Inhibition” value is -4% and the Z score is recorded as 0.81.

In the case of `CCOc1cc(CN[C@@H](CC)c2nc(C)no2)c(Cl)cc1OC(C)C`, the “% Inhibition” value is recorded as -11% and the Z score was 1.48.

As for `O=C(c1scc2c1OCCO2)N1CCCO[C@@H](Cn2cccn2)C1`, the “% Inhibition” value is listed as -4% and the Z score was 0.52.

Regarding `O=C(CN1CCCN(c2ccc(C(F)(F)F)cn2)CC1)Nc1cccc(F)c1`, the “% Inhibition” value is reported as -5% and the Z score is 0.92.

As for `CCCn1nnc2cc(S(=O)(=O)N3CCCC[C@H]3C(=O)NCc3ccccc3OCC)ccc21`, the “% Inhibition” value is listed as -39% and the Z score was found to be 3.48.

As to `Cc1cccc(C(=O)N2CCCCCCNC(=O)CC2)c1`, the “% Inhibition” value was -19% and the Z score is on record as 2.53.

Take `CCCc1noc([C@H]2CC(=O)N(c3ccccc3)C2)n1`: the “% Inhibition” value worked out at 18% and the Z score was -2.39.

As to `CC1(C)[C@@H](c2ccccc2)[C@@H]1c1nc(-c2ccc(N)nc2)no1`, the “% Inhibition” value is recorded as -1% and the Z score is listed as 0.14.

Turning to `Nc1n[nH]c2ccc(-c3ccc(C(=O)NCC[C@H]4CCOC4)cc3)cc12`, the “% Inhibition” value is -16% and the Z score came to 1.69.

`C[C@@](O)(C(=O)NCc1ccc(OC(F)F)cc1)C1CC1`: the “% Inhibition” value is reported as 4% and the Z score is reported as -0.81.

`Cc1noc(C)c1CNC(=O)[C@H](N)CC(C)C`: the “% Inhibition” value is -2% and the Z score is on record as 0.2.

Take `Cc1ccc(NC(=O)c2ccc(C(=O)c3ccccc3)o2)cc1`: the “% Inhibition” value is given as 14% and the Z score was -1.72.

With `CO[C@H]1CCN(S(=O)(=O)N2CCCCCC2)C1`, the “% Inhibition” value is given as -2% and the Z score amounted to 0.31.

For the compound `CCC[C@H](C)C1(CC)C(O)=NC(=Nc2ccc(Cl)cc2)N=C1O` (some centres undefined), the “% Inhibition” value is 2% and the Z score is -0.23.

As for `C#CCN(C(=O)NC1CCN(c2ccccc2S(=O)(=O)CC)CC1)C1CCCCC1`, the “% Inhibition” value is -9% and the Z score was 1.3.

`CN(C)CC(C)(C)CNS(=O)(=O)c1ccc(F)cc1C#N`: the “% Inhibition” value was -2% and the Z score stood at 0.26.

For the compound `CC[C@]1(O)CCN(c2nc(OC)cc(OC)n2)C[C@@H]1O`, the “% Inhibition” value is given as -4% and the Z score is given as 0.48.

For the compound `C[C@H]1CCCCN(C(=O)c2c[nH]c(C(F)(F)F)c2)C1`, the “% Inhibition” value is listed as 14% and the Z score is reported as -1.67.

In the case of `Cn1cc(-c2ccc3c(c2)OCC[C@@H]2CC[C@H](O)[C@@H](CNC(=O)[C@@H]4C[C@@H](CN4C4CCC(F)(F)CC4)NC3=O)O2)cn1`, the “% Inhibition” value turned out to be 9% and the Z score is -1.42.

Take `c1ccc(-n2cc(CN3CCCc4ccccc43)cn2)cc1`: the “% Inhibition” value is 6% and the Z score is reported as -0.91.

With `FC1(F)Oc2ccc(-c3ccc(-n4ccnc4)nn3)cc2O1`, the “% Inhibition” value was 3% and the Z score is listed as -0.39.

Turning to `CCc1ccc(CC)c(NS(=O)(=O)c2c(C)cnn2C)c1`, the “% Inhibition” value stood at 10% and the Z score is listed as -1.62.

As to `CCN(CC)CC1(NC(=O)c2ccc(CO)cc2)CC1`, the “% Inhibition” value came to 13% and the Z score is -1.77.

Take `Cc1c(-c2ccccc2)[nH]c2c(CNC(=O)CN3CCCC3=O)cc(Cl)cc12`: the “% Inhibition” value is listed as -2% and the Z score stood at 0.26.

With `CC(C)c1ccc([C@H](C)NC(=O)N(CCO)Cc2nccn2C)cc1`, the “% Inhibition” value was -16% and the Z score was found to be 2.93.

Consider `Cc1cc(CCNC(=O)[C@H]2CCOC2)nn1C`, for which the “% Inhibition” value is listed as -8% and the Z score is on record as 1.42.

Turning to `Cc1ccc(-c2noc(CCNC(=O)[C@@H]3CCCCn4nnnc43)n2)cc1`, the “% Inhibition” value was -10% and the Z score is reported as 1.45.

For `FC(F)c1cnc(N2CCC[C@H]2COc2ccccc2)nc1`, the “% Inhibition” value is given as -14% and the Z score came out at 2.34.

For the compound `c1cc(CNCc2cc[nH]n2)c2[nH]ncc2c1`, the “% Inhibition” value was 11% and the Z score is listed as -1.46.

Take `C[C@H](O)c1cccc(N2CCc3c(CC(N)=O)cccc3C2)n1`: the “% Inhibition” value was -9% and the Z score worked out at 1.3.

As for `Cc1ccccc1CNC(=O)CCNc1c(-c2cccc(F)c2)nc2cnccn12`, the “% Inhibition” value is on record as -15% and the Z score was found to be 2.17.

For the compound `COc1ccc(-c2nc(C)c3c(n2)N(C(C)C)C(=O)C3)cc1`, the “% Inhibition” value was determined as 1% and the Z score is -0.17.

Turning to `Cc1ccc(-c2cc(C(=O)O)n(C)c2)cc1`, the “% Inhibition” value is on record as -18% and the Z score is 1.59.

On to `COc1ccc2nc(O)c(-c3nc4c(C)cccn4c3Nc3ccc(C)cc3C)cc2c1`, for which the “% Inhibition” value was -3% and the Z score amounted to 0.43.

In the case of `CNC(=NCc1ccc2c(c1)CCC2)NC`, the “% Inhibition” value is -1% and the Z score was 0.18.

For the origin of these results see ChEMBL document CHEMBL4888484, “Replenishing the malaria drug discovery pipeline: Screening and hit evaluation of the MMV Hit Generation Library 1 (HGL1) against asexual blood stage Plasmodium falciparum ,using a nano luciferase reporter read-out” (2022).
